Results on one molecule are retold here after PMC11790958 (The EMBO Journal, 2024).

The target of the assay is T1, human condensin I tetramer lacking NCAPD2 (human, UniProt O95347; Q9NTJ3; Q15003; Q9BPX3).
T1 construct: SMC2, human condensin I subunit; SMC4, human condensin I subunit; NCAPH, human condensin I kleisin subunit; NCAPG, human condensin I HAWK subunit; The complex carries a strep tag; also called CIΔD2; pBIG2ab Condensin I delD2 strep; source: Sf9 insect cells (baculovirus), co-expressed, purified (StrepTrap, heparin, SEC); copies: + + +
T1 sequence (O95347 whole entry, chain 1 of 4): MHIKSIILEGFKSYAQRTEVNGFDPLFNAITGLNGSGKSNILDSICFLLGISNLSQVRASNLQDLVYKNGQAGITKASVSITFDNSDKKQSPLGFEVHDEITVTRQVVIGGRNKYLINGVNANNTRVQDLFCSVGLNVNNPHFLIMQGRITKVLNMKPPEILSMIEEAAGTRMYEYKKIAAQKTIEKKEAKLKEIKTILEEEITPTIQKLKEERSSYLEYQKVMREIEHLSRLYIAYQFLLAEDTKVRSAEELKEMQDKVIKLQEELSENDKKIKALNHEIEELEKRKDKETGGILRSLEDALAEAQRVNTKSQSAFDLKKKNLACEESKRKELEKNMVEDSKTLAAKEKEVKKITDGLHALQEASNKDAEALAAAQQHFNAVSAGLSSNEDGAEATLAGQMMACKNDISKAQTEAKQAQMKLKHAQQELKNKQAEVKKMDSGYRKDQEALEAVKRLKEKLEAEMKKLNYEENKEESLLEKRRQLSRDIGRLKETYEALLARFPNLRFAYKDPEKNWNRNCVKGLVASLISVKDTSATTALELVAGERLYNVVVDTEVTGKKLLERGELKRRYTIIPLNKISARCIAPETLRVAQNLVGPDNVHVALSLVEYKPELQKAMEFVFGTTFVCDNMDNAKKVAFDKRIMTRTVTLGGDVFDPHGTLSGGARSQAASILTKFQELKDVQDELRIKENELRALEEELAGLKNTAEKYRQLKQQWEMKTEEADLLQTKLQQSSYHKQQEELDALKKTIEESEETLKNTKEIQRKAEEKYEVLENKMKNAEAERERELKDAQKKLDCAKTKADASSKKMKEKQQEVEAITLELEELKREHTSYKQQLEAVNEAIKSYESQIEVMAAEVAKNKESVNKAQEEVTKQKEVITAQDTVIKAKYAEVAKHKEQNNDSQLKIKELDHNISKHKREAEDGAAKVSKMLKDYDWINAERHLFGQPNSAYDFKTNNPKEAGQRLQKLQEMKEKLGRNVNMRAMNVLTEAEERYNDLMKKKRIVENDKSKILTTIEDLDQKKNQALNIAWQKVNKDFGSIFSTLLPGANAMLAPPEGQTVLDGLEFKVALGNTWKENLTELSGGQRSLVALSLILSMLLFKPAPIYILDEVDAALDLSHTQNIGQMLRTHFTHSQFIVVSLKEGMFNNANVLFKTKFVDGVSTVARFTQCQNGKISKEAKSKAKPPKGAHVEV
T1 sequence (Q9NTJ3 whole entry, chain 2 of 4, further chain): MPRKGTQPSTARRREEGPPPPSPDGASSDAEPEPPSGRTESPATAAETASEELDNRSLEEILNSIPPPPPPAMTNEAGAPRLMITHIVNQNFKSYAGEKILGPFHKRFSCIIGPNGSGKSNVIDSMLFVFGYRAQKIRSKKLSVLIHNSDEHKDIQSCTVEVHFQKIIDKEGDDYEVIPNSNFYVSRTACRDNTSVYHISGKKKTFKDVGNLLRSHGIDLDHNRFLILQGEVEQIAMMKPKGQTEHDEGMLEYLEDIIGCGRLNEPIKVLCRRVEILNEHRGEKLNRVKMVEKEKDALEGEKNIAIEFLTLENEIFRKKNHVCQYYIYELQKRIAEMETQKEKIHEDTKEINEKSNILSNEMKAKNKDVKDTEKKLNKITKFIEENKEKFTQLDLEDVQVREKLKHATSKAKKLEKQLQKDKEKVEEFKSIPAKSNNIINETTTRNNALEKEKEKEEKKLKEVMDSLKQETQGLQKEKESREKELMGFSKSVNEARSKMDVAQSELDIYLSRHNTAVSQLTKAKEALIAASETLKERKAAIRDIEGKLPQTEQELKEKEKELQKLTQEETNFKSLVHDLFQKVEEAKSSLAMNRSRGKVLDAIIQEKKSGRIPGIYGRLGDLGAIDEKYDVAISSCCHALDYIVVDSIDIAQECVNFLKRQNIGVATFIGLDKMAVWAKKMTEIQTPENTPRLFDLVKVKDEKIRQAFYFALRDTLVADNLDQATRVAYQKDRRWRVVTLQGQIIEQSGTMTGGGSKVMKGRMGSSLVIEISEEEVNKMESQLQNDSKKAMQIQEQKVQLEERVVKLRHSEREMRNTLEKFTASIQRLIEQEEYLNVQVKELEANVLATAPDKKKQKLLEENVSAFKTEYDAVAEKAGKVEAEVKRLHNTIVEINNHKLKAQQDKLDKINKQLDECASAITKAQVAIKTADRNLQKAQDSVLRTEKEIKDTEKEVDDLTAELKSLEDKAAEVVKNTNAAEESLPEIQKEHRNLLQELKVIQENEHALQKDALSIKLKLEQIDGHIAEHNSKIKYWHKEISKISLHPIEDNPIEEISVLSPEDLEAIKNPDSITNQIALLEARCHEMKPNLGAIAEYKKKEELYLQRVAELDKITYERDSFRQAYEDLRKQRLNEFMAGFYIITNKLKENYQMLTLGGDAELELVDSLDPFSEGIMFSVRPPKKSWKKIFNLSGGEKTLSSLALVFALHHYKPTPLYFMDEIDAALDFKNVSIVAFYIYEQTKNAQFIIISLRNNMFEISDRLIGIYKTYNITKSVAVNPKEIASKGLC
T1 sequence (Q15003 whole entry, chain 3 of 4, further chain): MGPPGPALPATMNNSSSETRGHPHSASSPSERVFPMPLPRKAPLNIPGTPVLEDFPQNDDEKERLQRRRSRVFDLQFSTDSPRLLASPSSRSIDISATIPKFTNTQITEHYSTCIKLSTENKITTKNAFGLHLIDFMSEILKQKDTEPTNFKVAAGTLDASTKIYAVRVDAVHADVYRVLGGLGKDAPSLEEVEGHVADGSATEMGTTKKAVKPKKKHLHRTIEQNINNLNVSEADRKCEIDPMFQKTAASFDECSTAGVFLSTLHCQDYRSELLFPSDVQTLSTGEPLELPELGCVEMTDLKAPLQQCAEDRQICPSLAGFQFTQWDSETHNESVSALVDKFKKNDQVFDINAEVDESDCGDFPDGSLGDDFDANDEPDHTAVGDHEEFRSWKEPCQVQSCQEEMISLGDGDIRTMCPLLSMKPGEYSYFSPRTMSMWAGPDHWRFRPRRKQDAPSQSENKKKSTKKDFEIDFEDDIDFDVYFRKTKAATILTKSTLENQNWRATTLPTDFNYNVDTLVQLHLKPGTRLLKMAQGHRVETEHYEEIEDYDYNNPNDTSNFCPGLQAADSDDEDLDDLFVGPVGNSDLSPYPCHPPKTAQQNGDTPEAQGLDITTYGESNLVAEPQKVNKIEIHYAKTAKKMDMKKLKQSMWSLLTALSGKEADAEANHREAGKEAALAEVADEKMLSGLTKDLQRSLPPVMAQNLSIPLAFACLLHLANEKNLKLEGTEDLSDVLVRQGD
T1 sequence (Q9BPX3 whole entry, chain 4 of 4, further chain): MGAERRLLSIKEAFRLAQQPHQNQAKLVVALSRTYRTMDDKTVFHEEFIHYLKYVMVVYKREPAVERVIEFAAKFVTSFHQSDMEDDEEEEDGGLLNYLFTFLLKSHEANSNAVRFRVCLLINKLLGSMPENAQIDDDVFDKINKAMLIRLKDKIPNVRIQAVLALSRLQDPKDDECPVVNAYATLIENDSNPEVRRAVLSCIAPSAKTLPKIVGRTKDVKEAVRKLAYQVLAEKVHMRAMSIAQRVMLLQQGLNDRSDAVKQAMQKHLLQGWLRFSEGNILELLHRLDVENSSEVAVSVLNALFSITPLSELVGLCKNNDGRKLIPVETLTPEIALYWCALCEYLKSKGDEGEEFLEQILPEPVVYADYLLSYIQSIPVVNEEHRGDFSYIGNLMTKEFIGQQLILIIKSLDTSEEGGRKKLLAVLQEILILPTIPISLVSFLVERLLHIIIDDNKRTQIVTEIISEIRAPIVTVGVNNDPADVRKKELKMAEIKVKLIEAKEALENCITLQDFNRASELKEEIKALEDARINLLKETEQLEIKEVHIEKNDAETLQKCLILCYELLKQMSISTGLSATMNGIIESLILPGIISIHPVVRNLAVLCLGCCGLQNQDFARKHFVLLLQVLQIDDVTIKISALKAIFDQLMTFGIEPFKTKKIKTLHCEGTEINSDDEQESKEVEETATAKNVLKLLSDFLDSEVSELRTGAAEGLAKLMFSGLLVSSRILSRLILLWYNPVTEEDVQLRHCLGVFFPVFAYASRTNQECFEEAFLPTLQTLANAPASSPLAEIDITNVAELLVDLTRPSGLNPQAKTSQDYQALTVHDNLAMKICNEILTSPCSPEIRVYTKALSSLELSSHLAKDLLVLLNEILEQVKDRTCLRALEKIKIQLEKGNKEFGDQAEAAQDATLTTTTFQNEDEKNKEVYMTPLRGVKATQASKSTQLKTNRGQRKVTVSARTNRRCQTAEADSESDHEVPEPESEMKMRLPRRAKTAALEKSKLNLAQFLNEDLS
In words: mass photometry; Refeyn TwoMP; HAWK subunit added to the tetramer; 20 mM HEPES pH 8, 150 mM KCl; final protein ~7 nM. The settings on record: both partners purified.

B1: NCAPD2 (recombinant human condensin I HAWK subunit) (natural protein)
chain: not shown
notes: NCAPD2, human condensin I HAWK subunit; also called NCAPD2 alone; pLIB NCAPD2 ystrep; source: Sf9 insect cells (baculovirus), purified (StrepTrap, heparin, SEC)
For the molecule B1, the binding result is listed as “binds”.
